# Measurements from publication PMC9911399, “Two distinct binding modes provide the RNA-binding protein RbFox with extraordinary sequence specificity”.
# Changes are numbered by the printed parent chain; changes in the protein carry UniProt numbers. The list shows a part of the results.
# T1: RBFOX1 RRM RbFoxmut (Fox-RRM*) (Homo sapiens, UniProt Q9NWB1 109-208, R118D;E147R;N151S;E152T)
# T1 sequence: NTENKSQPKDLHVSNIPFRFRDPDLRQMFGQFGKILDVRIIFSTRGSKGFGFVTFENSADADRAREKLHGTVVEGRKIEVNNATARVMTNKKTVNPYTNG
# B1: GAAAUUU (DNA:RNA)
# RNA: GGGAGACCGGAAUUCAGAUUGUCCGAAAUUUUUAAAUCCCGUCGUAGCCACCA
# DNA 1: CAATCTGAATTCCGGTCTCCC
# DNA 2: TGGTGGCTACGACGGGATT
# B2: CAUGCGC (DNA:RNA)
# RNA: B1 RNA with G25C, A27U, A28G, U29C, U30G, U31C
# DNA 1: CAATCTGAATTCCGGTCTCCC
# DNA 2: TGGTGGCTACGACGGGATT
# B3: GACCUGA (DNA:RNA)
# RNA: B1 RNA with A27C, A28C, U30G, U31A
# DNA 1: CAATCTGAATTCCGGTCTCCC
# DNA 2: TGGTGGCTACGACGGGATT
# B4: CGGGUUA (DNA:RNA)
# RNA: B1 RNA with G25C, A26G, A27G, A28G, U31A
# DNA 1: CAATCTGAATTCCGGTCTCCC
# DNA 2: TGGTGGCTACGACGGGATT
# B5: CAACCUU (DNA:RNA)
# RNA: B1 RNA with G25C, A28C, U29C
# DNA 1: CAATCTGAATTCCGGTCTCCC
# DNA 2: TGGTGGCTACGACGGGATT
# B6: CCGGCCG (DNA:RNA)
# RNA: GGGAGACCGGAAUUCAGAUUGUCCCCGGCCGUUAAAUCCCGUCGUAGCCACCA
# DNA 1: CAATCTGAATTCCGGTCTCCC
# DNA 2: TGGTGGCTACGACGGGATT
# B7: GUGGGCC (DNA:RNA)
# RNA: B6 RNA with C25G, C26U, C29G, G31C
# DNA 1: CAATCTGAATTCCGGTCTCCC
# DNA 2: TGGTGGCTACGACGGGATT
# B8: UUCUUGA (DNA:RNA)
# RNA: B1 RNA with G25U, A26U, A27C, A28U, U30G, U31A
# DNA 1: CAATCTGAATTCCGGTCTCCC
# DNA 2: TGGTGGCTACGACGGGATT
# B9: AUCUCUU (DNA:RNA)
# RNA: B1 RNA with G25A, A26U, A27C, A28U, U29C
# DNA 1: CAATCTGAATTCCGGTCTCCC
# DNA 2: TGGTGGCTACGACGGGATT
# B10: UUCCCAA (DNA:RNA)
# RNA: B6 RNA with C25U, C26U, G27C, G28C, C30A, G31A
# DNA 1: CAATCTGAATTCCGGTCTCCC
# DNA 2: TGGTGGCTACGACGGGATT
# B11: GCUUAUC (DNA:RNA)
# RNA: B1 RNA with A26C, A27U, A28U, U29A, U31C
# DNA 1: CAATCTGAATTCCGGTCTCCC
# DNA 2: TGGTGGCTACGACGGGATT
# B12: AAAGCGG (DNA:RNA)
# RNA: B6 RNA with C25A, C26A, G27A, C30G
# DNA 1: CAATCTGAATTCCGGTCTCCC
# DNA 2: TGGTGGCTACGACGGGATT
# B13: GUCGAUU (DNA:RNA)
# RNA: B1 RNA with A26U, A27C, A28G, U29A
# DNA 1: CAATCTGAATTCCGGTCTCCC
# DNA 2: TGGTGGCTACGACGGGATT
# B14: AGAUAUG (DNA:RNA)
# RNA: B1 RNA with G25A, A26G, A28U, U29A, U31G
# DNA 1: CAATCTGAATTCCGGTCTCCC
# DNA 2: TGGTGGCTACGACGGGATT
# B15: CUAAGUG (DNA:RNA)
# RNA: B1 RNA with G25C, A26U, U29G, U31G
# DNA 1: CAATCTGAATTCCGGTCTCCC
# DNA 2: TGGTGGCTACGACGGGATT
# B16: UGAAUUG (DNA:RNA)
# RNA: B1 RNA with G25U, A26G, U31G
# DNA 1: CAATCTGAATTCCGGTCTCCC
# DNA 2: TGGTGGCTACGACGGGATT
# B17: GACGACC (DNA:RNA)
# RNA: B6 RNA with C25G, C26A, G27C, C29A, G31C
# DNA 1: CAATCTGAATTCCGGTCTCCC
# DNA 2: TGGTGGCTACGACGGGATT
# B18: GAUUCAC (DNA:RNA)
# RNA: B1 RNA with A27U, A28U, U29C, U30A, U31C
# DNA 1: CAATCTGAATTCCGGTCTCCC
# DNA 2: TGGTGGCTACGACGGGATT
# B19: UCUUCAU (DNA:RNA)
# RNA: B6 RNA with C25U, G27U, G28U, C30A, G31U
# DNA 1: CAATCTGAATTCCGGTCTCCC
# DNA 2: TGGTGGCTACGACGGGATT
# B20: UGCGAAA (DNA:RNA)
# RNA: B6 RNA with C25U, C26G, G27C, C29A, C30A, G31A
# DNA 1: CAATCTGAATTCCGGTCTCCC
# DNA 2: TGGTGGCTACGACGGGATT
# B21: UUUCUGU (DNA:RNA)
# RNA: B1 RNA with G25U, A26U, A27U, A28C, U30G
# DNA 1: CAATCTGAATTCCGGTCTCCC
# DNA 2: TGGTGGCTACGACGGGATT
# B22: CUUAGGG (DNA:RNA)
# RNA: B6 RNA with C26U, G27U, G28A, C29G, C30G
# DNA 1: CAATCTGAATTCCGGTCTCCC
# DNA 2: TGGTGGCTACGACGGGATT
# B23: CAGCCUC (DNA:RNA)
# RNA: B6 RNA with C26A, G28C, C30U, G31C
# DNA 1: CAATCTGAATTCCGGTCTCCC
# DNA 2: TGGTGGCTACGACGGGATT
# B24: CACGUCC (DNA:RNA)
# RNA: B6 RNA with C26A, G27C, C29U, G31C
# DNA 1: CAATCTGAATTCCGGTCTCCC
# DNA 2: TGGTGGCTACGACGGGATT
# B25: CCGAGGG (DNA:RNA)
# RNA: B6 RNA with G28A, C29G, C30G
# DNA 1: CAATCTGAATTCCGGTCTCCC
# DNA 2: TGGTGGCTACGACGGGATT
# B26: UCUAAGG (DNA:RNA)
# RNA: B6 RNA with C25U, G27U, G28A, C29A, C30G
# DNA 1: CAATCTGAATTCCGGTCTCCC
# DNA 2: TGGTGGCTACGACGGGATT
# B27: AGUCUAU (DNA:RNA)
# RNA: B1 RNA with G25A, A26G, A27U, A28C, U30A
# DNA 1: CAATCTGAATTCCGGTCTCCC
# DNA 2: TGGTGGCTACGACGGGATT
# B28: UGCCCGU (DNA:RNA)
# RNA: B6 RNA with C25U, C26G, G27C, G28C, C30G, G31U
# DNA 1: CAATCTGAATTCCGGTCTCCC
# DNA 2: TGGTGGCTACGACGGGATT
# B29: UUUCAAG (DNA:RNA)
# RNA: B6 RNA with C25U, C26U, G27U, G28C, C29A, C30A
# DNA 1: CAATCTGAATTCCGGTCTCCC
# DNA 2: TGGTGGCTACGACGGGATT
# B30: UAGGAAG (DNA:RNA)
# RNA: B6 RNA with C25U, C26A, C29A, C30A
# DNA 1: CAATCTGAATTCCGGTCTCCC
# DNA 2: TGGTGGCTACGACGGGATT
# B31: CUAUUGG (DNA:RNA)
# RNA: B6 RNA with C26U, G27A, G28U, C29U, C30G
# DNA 1: CAATCTGAATTCCGGTCTCCC
# DNA 2: TGGTGGCTACGACGGGATT
# Biological target: T1, RBFOX1 RRM RbFoxmut (Fox-RRM*)
# Assay: EMSA; HiTS-Eq, 1 nM pool, 10 min; buffer printed only for the single-RNA assays: 10 mM Tris pH 7.5, 150 mM NaCl, 3.4 mM EDTA, 0.001% NP-40, 30 C
# Details: tags: His6 N-terminal (pET28a); label: 5' 32P
# Summary of the method: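 Purified RbFox RRM, wild type or mutant, was incubated for 10 min in 50 µL with 1 nM of a 5′-radiolabelled RNA pool carrying 7 randomized nucleotides, whose flanks were annealed to DNA oligonucleotides, over a series of increasing protein concentrations. Unbound RNA was resolved on 8% native PAGE, cut out, reverse-transcribed, barcoded by PCR and sequenced on an Illumina HiSeq 2500. Relative association constants were derived from changes in read counts for each RNA species versus the control reaction and normalised to the cognate motif.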
row,Binder,binding signal
1,B1,0.0731 KA relative to UGCAUGU
2,B2,0.101 KA relative to UGCAUGU
3,B3,0.0686 KA relative to UGCAUGU
4,B4,0.139 KA relative to UGCAUGU
5,B5,0.119 KA relative to UGCAUGU
6,B6,0.0916 KA relative to UGCAUGU
7,B7,0.193 KA relative to UGCAUGU
8,B8,0.111 KA relative to UGCAUGU
9,B9,0.0743 KA relative to UGCAUGU
10,B10,0.101 KA relative to UGCAUGU
11,B11,0.104 KA relative to UGCAUGU
12,B12,0.0725 KA relative to UGCAUGU
13,B13,0.0768 KA relative to UGCAUGU
14,B14,0.183 KA relative to UGCAUGU
15,B15,0.0707 KA relative to UGCAUGU
16,B16,0.174 KA relative to UGCAUGU

row,Binder,binding signal
1,B17,0.052 KA relative to UGCAUGU
2,B18,0.0862 KA relative to UGCAUGU
3,B19,0.0793 KA relative to UGCAUGU
4,B20,0.105 KA relative to UGCAUGU
5,B21,0.111 KA relative to UGCAUGU
6,B22,0.0704 KA relative to UGCAUGU
7,B23,0.0602 KA relative to UGCAUGU
8,B24,0.097 KA relative to UGCAUGU
9,B25,0.083 KA relative to UGCAUGU
10,B26,0.0828 KA relative to UGCAUGU
11,B27,0.0968 KA relative to UGCAUGU
12,B28,0.13 KA relative to UGCAUGU
13,B29,0.124 KA relative to UGCAUGU
14,B30,0.076 KA relative to UGCAUGU
15,B31,0.108 KA relative to UGCAUGU
